Results: the RNAGym collection of RNA variant scans (doi:10.1073/pnas.2313332121)
Variants at the background level are over-represented here.

B1: TPR 5TU (parent)
chain: GGAUCUUCUCGAUCUAACAAAAAAGACAAAUCUGCCACAAAGCUUGAGAGCAUCUUCGGAUGCAGAGGCGGCAGCCUUCGGUGGCGCGAUAGCGCCAACGUUCUCAACUAUGACACGCAAAACGCGUGCUCCGUUGAAUGGAGUUUAUCAUG

Variants of: B1
Experiment: polymerase ribozyme fitness, log enrichment relative to wild type (log ratio); higher = more active; in vitro selection for triplet polymerase activity
How it was run: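 For each subunit of a heterodimeric triplet polymerase ribozyme, a mutant library was built by PCR and transcribed, then taken through a single in vitro selection round in triplicate. Selection involved annealing to a biotinylated primer, the partner subunit and triplets, incubation frozen at −7 °C, gel excision of extended constructs, capture on streptavidin beads and RT-PCR. Genotypes were retained after Illumina sequencing of inputs and outputs only with ≥10 input reads and ≥1 read in each output. Fitness is defined as the logarithm of a genotype's enrichment relative to wild-type enrichment, using inverse-variance-weighted averages across replicates, with the logarithm taken to base 2.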

| Variant | polymerase ribozyme fitness (log ratio) |
| --- | --- |
| C108U A142C | -3.43 |
| C108U A147C | -3.44 |
| C108U G133C A138U G140U | ≤ -4.2 |
| U109A G141A A142U | ≤ -4.2 |
| U109C A120U | ≤ -4.2 |
| U109C A137C | ≤ -4.2 |
| U109G A142C | -2.18 |
| U109G G133C | -2 |
| A110C | ≤ -4.2 |
| A110C G112A G140C A142U | -4.12 |
| A110G | -2.42 |
| A110G A113G A137C | ≤ -4.2 |
| A110G A122G | -2.84 |
| A110G G140U A147G C149A | ≤ -4.2 |
| A110U | -3.57 |
| U111A | -3.05 |
| U111C | -1.77 |
| U111C A119U U139G U151G | ≤ -4.2 |
| U111G | -4.05 |
| A113C G124U A150U | ≤ -4.2 |
| A113C U134C A137C G140A U148G | ≤ -4.2 |
| C114A | -2.72 |

| Variant | polymerase ribozyme fitness (log ratio) |
| --- | --- |
| C114G | -2.54 |
| C114U | -1.75 |
| C114U A137U | -4.05 |
| C114U C118G | -2.88 |
| C114U C123U | -2.17 |
| C114U G136C | -3.39 |
| C114U U135C | -2.95 |
| A115C | -0.641 |
| A115G | -1 |
| A115G U135A | -2.48 |
| A115U | -1.48 |
| A115U C118U U146C A150G | ≤ -4.2 |
| A115U U146G | -2.23 |
| A115U U148G | -4.15 |
| C116A U151C | -4.09 |
| C116G A120U | 0.554 |
| C116G U146G | -0.306 |
| C116U A119U U135C | -2.59 |
| C116U A121U G124U | -2.02 |
| C116U C125U U146C | -0.74 |
| C116U G124A A142G | -2.45 |
| C116U G141A | -1.01 |

| Variant | polymerase ribozyme fitness (log ratio) |
| --- | --- |
| G117A C123A | 0.34 |
| G117A U144C | -2.9 |
| G117U C123G A138U | ≤ -4.2 |
| C118G A122C | -1.49 |
| C118G C129U | -1.77 |
| C118U A142C | -0.682 |
| A119U A137U | -4.12 |
| A119U C129U | 0.265 |
| A120G G141C A147U | -1.01 |
| A121C G128C | -2.44 |
| A121G U134G | -2.56 |
| A121U C132U U146A | -0.968 |
| A122G G124A A137U | ≤ -4.2 |
| A122G G124A U127A | -3.53 |
| A122G G133U | -3.59 |
| C123A G140A | -3.65 |
| G124A G140C | -3.89 |
| G124C A142U | -0.985 |
| G124C G140C | -4.05 |
| C125U G126A | -3.14 |
| C125U U134G A142C | -3.76 |
| G126A C129G | -3.97 |

| Variant | polymerase ribozyme fitness (log ratio) |
| --- | --- |
| G126A G143A | -1.92 |
| G126C A150G | -2.81 |
| G128A G133A U134C A150G | -3.52 |
| G128A G141A G143U U144G U151A | ≤ -4.2 |
| G128U G133C U146C A150G | ≤ -4.2 |
| U130C U144C A147C | -1.95 |
| C131A | -1.77 |
| C131G | -2.79 |
| C131G A137U | -4.16 |
| C131U | 1.18 |
| C132A | -2.06 |
| C132G | -3.15 |
| C132U | -0.687 |
| C132U A150G | -2.47 |
| C132U C149G | -3.84 |
| U135A A147U | -0.75 |
| U135A G136C | -4.14 |
| U135G A137U | -4.04 |
| U135G G141U U146G | ≤ -4.2 |
| A137C | -3.09 |
| A137G | -1.15 |
| A137G U145G | -1.02 |

| Variant | polymerase ribozyme fitness (log ratio) |
| --- | --- |
| A137U | -3.39 |
| A137U G141A | -3.24 |
| A137U G143U | -3.39 |
| A138C A142C G143A | ≤ -4.2 |
| A138C U139A | -3.78 |
| A138U G140A | ≤ -4.2 |
| U139G A150C | -3.84 |
| G140U A147U | -2.9 |
| G141C C149A | ≤ -4.2 |
| G141U A142C | -3.58 |
| G141U G143C | ≤ -4.2 |
| U145C U146G | 0.121 |
| U146A | -0.305 |
| U146A C149A | ≤ -4.2 |
| U146C | 0.00807 |
| U146G | -0.513 |
| U146G A150G G152A | -1.84 |
| U148G U151A | -3.95 |
